Source: PubChem BioAssay (NCI)
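The compound was tested at five concentrations on cells cultured in 96-well plates, with a 48-hour exposure period. GI50 marks 50% less growth. At the TGI there is no net growth.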

What follows are molecules tested on NCI-H322M lung (assay: DTP human tumour cell line panel, 48 h).

Row | Compound | GI50 [µM] | TGI [µM]
1 | Nc1nc(N)c2c(n1)NC(c1ccc(Cl)cc1)CC(c1ccc(Nc3nc(NCCO)nc(Nc4ccc(Cl)cc4)n3)cc1)=N2 (stereo unspecified) | 2.02 | 4.89
2 | O=C(CCCCCCNC(=O)c1csc(Br)n1)NO | 2.78 | > 33.3
3 | Oc1ccc(CSc2nnc(-c3ccc(Cl)cc3)o2)c2cccnc12 | 1.92 | > 100
